Results from the RNAGym collection of RNA variant scans (doi:10.7554/elife.90254).
The source gives no read counts; variants with many changes may rest on few reads.

B1: OR4K15 (parent)
chain: GUUAACGGUCAUAGGCCAUGGAAACUAGGAGCACCAUUUCGCUGCCAGUGAAGAAAUGAACAAAGAAAAUCUGGGCCAGGCAGGCAUCAAAAGAAAUAGUCUUGCGCUCAACCAGAAAGUCUGUAAUCAUUUUAAGGGUA

Variants of: B1
Experiment: self-cleavage, relative activity (ratio to wild type); higher = more cleavage; in vitro, sequencing; the parent is a self-cleaving ribozyme
Variant A56U A66G U70G C107A has a self-cleavage of 0. Work on A55G A56G U72A A95G U130C yielded a self-cleavage of 0.37. A55G A82G A126G showed a self-cleavage of 0.24. In the case of A56G A69G U87A U120C, the self-cleavage is reported as 0.39. A59G A63G U122C showed a self-cleavage of 0.74. In the case of A54G A67G U108C A116G U133C, the self-cleavage is reported as 0.01. With A59G A64G U132C the self-cleavage was 0.65. Variant A55G A64G A94G A134U U139C has a self-cleavage of 1.52. In the case of A55G A68G A129G, the self-cleavage is reported as 1.85. Work on U57A A63G U132C yielded a self-cleavage of 0.65. With A55G C85G U132C the self-cleavage was 0.41. A55G A66G U122C showed a self-cleavage of 1.6. U57A A62G A96G showed a self-cleavage of 0.07. A55G A96G U108G A135U showed a self-cleavage of 0.02. In the case of A56C A66G A94G A114U, the self-cleavage is reported as 0.03. With A54G A86G A96G the self-cleavage was 1.67. Work on U57C A91G A92G yielded a self-cleavage of 0.72. For A55G A66G U127C U139A, the self-cleavage was 0.71. With A56G A63G G79A A91G C107U U108A A116G A117G the self-cleavage was 0.31. In the case of A54U A110U A126G, the self-cleavage is reported as 0.79. U57C A89U A114G showed a self-cleavage of 0.24. With A56C G106A A118G U132C the self-cleavage was 0.01. Work on A55G A63G A68G A92G U102C yielded a self-cleavage of 1.99. With A56G A60G A68G the self-cleavage was 0.49. In the case of A54U U87G A94G U102C, the self-cleavage is reported as 0.7. A54G A68U A69G gave a self-cleavage of 0.82. A54G U57C A63G gave a self-cleavage of 0.36. For A56G A59U U133A, the self-cleavage was 1.82. Work on A55G A56G A134G yielded a self-cleavage of 0. Variant G58A U72C U103C has a self-cleavage of 0.09. A56G A64G U102C A110G showed a self-cleavage of 0.21. A54G C81U U124C gave a self-cleavage of 0.1. A56G A91U A94G A98G gave a self-cleavage of 1.3. U57G U103C A116G showed a self-cleavage of 0.04. In the case of A56U A69G A96G A140G, the self-cleavage is reported as 1.81. Variant U57G U87A A89G has a self-cleavage of 0.37. With A54G A78G A117G the self-cleavage was 0.57. Variant U57C U70C U120C has a self-cleavage of 0.16. Variant A55G A91G U108C U130C has a self-cleavage of 0. In the case of A56G A60G A95G U122C, the self-cleavage is reported as 0.44. Variant U57C G106A U120C has a self-cleavage of 0. In the case of A54G G80A A126G, the self-cleavage is reported as 0.19. For A55G A90C A92G U108C U127C, the self-cleavage was 0.01. In the case of A55G A78G U120C, the self-cleavage is reported as 0.3. Work on A54G U57C A60G A63G C128A yielded a self-cleavage of 0.33. In the case of A56G A59G A67G A118G U130C, the self-cleavage is reported as 1. U57G U130C A140G showed a self-cleavage of 0.91. A54G A86U A98U gave a self-cleavage of 2. For A55G U70C G106A A116G U120C A125G, the self-cleavage was 0.01. U57C A68U A116G showed a self-cleavage of 0.69. With A55G A59U U100C A117G A125G the self-cleavage was 1.13. Work on U57C A59G A89G yielded a self-cleavage of 1.91. A56G U97A U130C showed a self-cleavage of 0.67. U57C A62U A69G A92G A111G gave a self-cleavage of 0.07. For A59G A66G U72C A86U, the self-cleavage was 0.45. In the case of A55G A67G A92G, the self-cleavage is reported as 2.33. Variant A54G A111U A134G has a self-cleavage of 0.03. Variant A54G A68C A89G U120C U122C has a self-cleavage of 1.11. For A59G A63G G80A, the self-cleavage was 0.18. In the case of A55G U100C U102C A140G, the self-cleavage is reported as 1.98. Work on U57C A67G A116G yielded a self-cleavage of 0.61. Variant U57C U100C A110G A126C has a self-cleavage of 0.08. For A59C U70C U130C, the self-cleavage was 0.44. Work on U57C A96G A117G yielded a self-cleavage of 1.31. For A56G A66G U120C, the self-cleavage was 1.03. For U57C A116G U127C, the self-cleavage was 0.16. With A59G A67G A118U the self-cleavage was 1.49. With U57C A63G A110G the self-cleavage was 0.16. A56G G99A U102C U127C showed a self-cleavage of 1.24. For A55G A114C U122C U131C U132C, the self-cleavage was 0.01. A54G U87C A126G gave a self-cleavage of 0.52. Variant A56G U87C C113U has a self-cleavage of 0.18. With A55G A60U C85U A125G the self-cleavage was 0.56. With A55G A66G U127C the self-cleavage was 0.31. A55G A59U A90G gave a self-cleavage of 0.75. Variant A56G G83U A86G U133C has a self-cleavage of 0.38. With A56G A69G A95G the self-cleavage was 1.17. Work on U57A U72C U103C U127C yielded a self-cleavage of 0.01. A55G A68G U72C gave a self-cleavage of 0.17. A55G A60G A68G A126G showed a self-cleavage of 0.59. In the case of A56G U108C U124A, the self-cleavage is reported as 0. A55G A66G A69G A95G U131A gave a self-cleavage of 1.26. A56G A94G U131C showed a self-cleavage of 1.04. With A54G U103C A126G U127C the self-cleavage was 0.2. Work on U57C U70C U102A yielded a self-cleavage of 0.15. With U57A A68G A96G the self-cleavage was 0.79. A54G A82G A110G U127A gave a self-cleavage of 0.17. With A55G C88U A126G the self-cleavage was 1.29. With A56G A69G U132A the self-cleavage was 0.46. Work on A55U A63U A114U yielded a self-cleavage of 0.1. A55G A66G C71A A89U showed a self-cleavage of 0.64. A55G U70A U108C A111G U120C showed a self-cleavage of 0. A59G A67G U122C U127C showed a self-cleavage of 0.76. Work on A54G A92G U108C A135U yielded a self-cleavage of 0.01. U57C A78U U122C showed a self-cleavage of 0.15. Work on A56G U87A A90G yielded a self-cleavage of 1.12. A54G A78G A98U showed a self-cleavage of 0.29. In the case of A56G A67G A116G A118U, the self-cleavage is reported as 0.38. U57G A60G A92G gave a self-cleavage of 0.27. A55G A95U A118U showed a self-cleavage of 1.02. A59G A62U U103C gave a self-cleavage of 0.57. For A56G A89G A114U, the self-cleavage was 0.02. In the case of A55G A114U U127C, the self-cleavage is reported as 0.05. For A54G A94G C107A A134C, the self-cleavage was 0.05. Variant A54G A78G C101A has a self-cleavage of 0.12. Work on A55G A68G A78G yielded a self-cleavage of 0. With G58U A67G A86G U87C the self-cleavage was 0.22. For A55G A94G G119A, the self-cleavage was 1.74. For A56G A98U U139C, the self-cleavage was 1.87. U57A A60G U72C gave a self-cleavage of 0.17. For A55U A66U U87C U122A, the self-cleavage was 0.52. For A56G U72C U120C, the self-cleavage was 0.1. A59G A63G A89G A129G gave a self-cleavage of 0.84. Variant A54G U87C A92G has a self-cleavage of 1.24. For A54U A94G U108C U127C, the self-cleavage was 0.01. Work on A56G A66G C88A A118U yielded a self-cleavage of 1.34. In the case of A55G A78C A91G, the self-cleavage is reported as 0.2. For U57A U130C U132C, the self-cleavage was 1.29. Variant A59G A63G U70C U120G A129G U130C has a self-cleavage of 0.32. Variant A56G U100C U103C has a self-cleavage of 2.45. For A56U A66G A94G U100C U108C, the self-cleavage was 0. Work on A55G A90G A118G U130C yielded a self-cleavage of 0.16. Variant A55G U70C A89G U103C has a self-cleavage of 0.35. With A54G C61A A94G A95G U124C C128U the self-cleavage was 0.94. Variant A55G C107U A126G has a self-cleavage of 0.02. In the case of U57C A92G U102C, the self-cleavage is reported as 0.99. In the case of A56G A116G A117G, the self-cleavage is reported as 0.25. A54U A60G A68G A117G showed a self-cleavage of 2.56. Work on A55U A60G A64G yielded a self-cleavage of 0.6. In the case of A55G G99A U127A U131C A135U, the self-cleavage is reported as 0.84. Variant A56G U87A C88U A96U U102C has a self-cleavage of 1.85. Variant U57G U87C U131C has a self-cleavage of 1.8. A59G A62U U103C U122C gave a self-cleavage of 0.56. A55G A89G G93U gave a self-cleavage of 0.61. In the case of A59C U103C U122C U132C, the self-cleavage is reported as 0.36. In the case of A56G U87A U97A, the self-cleavage is reported as 1.97. With U57C A60G U70G the self-cleavage was 0.66. In the case of U57C A89G C113U A117G, the self-cleavage is reported as 0.01. In the case of A56G G73C A110U, the self-cleavage is reported as 0.05. U57C A68G A118G U139C showed a self-cleavage of 0.63. With A56G U102C A111U A135G the self-cleavage was 0.04. A56U C113U G119U U124C gave a self-cleavage of 0.11. With A55G U87C A118G U120C U139A the self-cleavage was 0.05. In the case of G58U A60C A92G G136C, the self-cleavage is reported as 1.64. Variant U57C A63U A67G A78U U130C has a self-cleavage of 0.23. Work on A55G A78G A90G yielded a self-cleavage of 0.07. For G58A A59G U102A, the self-cleavage was 1.01. For U57C A62G A69G U87C A96C, the self-cleavage was 1.05. Work on A59G A62G A67C A110G A118U yielded a self-cleavage of 0.19. Work on U57A A69U A91G A117G U131C A135U yielded a self-cleavage of 0.27. A59G A62G U72A U127C gave a self-cleavage of 0.12. A56G U133A G137A gave a self-cleavage of 1.53. Work on U57C U102A U127C A140G yielded a self-cleavage of 0.39. With A56G A95G A110G the self-cleavage was 0.15. For A55G A82G A110G, the self-cleavage was 0.09. For A56G A69G A125G, the self-cleavage was 0.3. For A55G A56G A96U, the self-cleavage was 1.33. For A55G A62G A82C A91G U131G, the self-cleavage was 0. For A56G A69G A92G, the self-cleavage was 1.6. With G58A A59U A67G the self-cleavage was 0.68. A59C U108G A114U gave a self-cleavage of 0.01. Work on U57A A117G U122C yielded a self-cleavage of 0.15. A55G A125G U131C showed a self-cleavage of 0.98. Variant A55G A114G A126C has a self-cleavage of 0.1. In the case of U57G G75C A126G, the self-cleavage is reported as 0.16. In the case of A56G G80A A82G, the self-cleavage is reported as 0.12. Work on A54U U132C A135G yielded a self-cleavage of 2.05.
